Laboratory results as given in publication PMC9911399, “Two distinct binding modes provide the RNA-binding protein RbFox with extraordinary sequence specificity”.
Residue numbers refer to the chain shown, from its start. This is one part of the list.

T1: RBFOX1 RRM RbFoxmut (Fox-RRM*) (Homo sapiens, UniProt Q9NWB1 109-208, R118D;E147R;N151S;E152T)
T1 sequence: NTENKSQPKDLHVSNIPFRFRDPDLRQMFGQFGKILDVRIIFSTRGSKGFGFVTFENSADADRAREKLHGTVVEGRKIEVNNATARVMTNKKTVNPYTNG

B1: ACCAAGG (DNA:RNA)
RNA: GGGAGACCGGAAUUCAGAUUGUCCACCAAGGUUAAAUCCCGUCGUAGCCACCA
DNA 1: CAATCTGAATTCCGGTCTCCC
DNA 2: TGGTGGCTACGACGGGATT
B2: AUGGGUG (DNA:RNA)
RNA: B1 RNA with C26U, C27G, A28G, A29G, G30U
DNA 1: CAATCTGAATTCCGGTCTCCC
DNA 2: TGGTGGCTACGACGGGATT
B3: ACGCAAC (DNA:RNA)
RNA: B1 RNA with C27G, A28C, G30A, G31C
DNA 1: CAATCTGAATTCCGGTCTCCC
DNA 2: TGGTGGCTACGACGGGATT
B4: UCUUUGA (DNA:RNA)
RNA: B1 RNA with A25U, C27U, A28U, A29U, G31A
DNA 1: CAATCTGAATTCCGGTCTCCC
DNA 2: TGGTGGCTACGACGGGATT
B5: CUCGCCG (DNA:RNA)
RNA: B1 RNA with A25C, C26U, A28G, A29C, G30C
DNA 1: CAATCTGAATTCCGGTCTCCC
DNA 2: TGGTGGCTACGACGGGATT
B6: GACUAAA (DNA:RNA)
RNA: B1 RNA with A25G, C26A, A28U, G30A, G31A
DNA 1: CAATCTGAATTCCGGTCTCCC
DNA 2: TGGTGGCTACGACGGGATT
B7: ACACUCG (DNA:RNA)
RNA: B1 RNA with C27A, A28C, A29U, G30C
DNA 1: CAATCTGAATTCCGGTCTCCC
DNA 2: TGGTGGCTACGACGGGATT
B8: GAAUAAG (DNA:RNA)
RNA: B1 RNA with A25G, C26A, C27A, A28U, G30A
DNA 1: CAATCTGAATTCCGGTCTCCC
DNA 2: TGGTGGCTACGACGGGATT
B9: UAAGAAG (DNA:RNA)
RNA: B1 RNA with A25U, C26A, C27A, A28G, G30A
DNA 1: CAATCTGAATTCCGGTCTCCC
DNA 2: TGGTGGCTACGACGGGATT
B10: CCCCUGU (DNA:RNA)
RNA: B1 RNA with A25C, A28C, A29U, G31U
DNA 1: CAATCTGAATTCCGGTCTCCC
DNA 2: TGGTGGCTACGACGGGATT
B11: CGCGGCU (DNA:RNA)
RNA: B1 RNA with A25C, C26G, A28G, A29G, G30C, G31U
DNA 1: CAATCTGAATTCCGGTCTCCC
DNA 2: TGGTGGCTACGACGGGATT
B12: CCUCGUA (DNA:RNA)
RNA: B1 RNA with A25C, C27U, A28C, A29G, G30U, G31A
DNA 1: CAATCTGAATTCCGGTCTCCC
DNA 2: TGGTGGCTACGACGGGATT
B13: CUUCUGA (DNA:RNA)
RNA: B1 RNA with A25C, C26U, C27U, A28C, A29U, G31A
DNA 1: CAATCTGAATTCCGGTCTCCC
DNA 2: TGGTGGCTACGACGGGATT
B14: ACGACCU (DNA:RNA)
RNA: B1 RNA with C27G, A29C, G30C, G31U
DNA 1: CAATCTGAATTCCGGTCTCCC
DNA 2: TGGTGGCTACGACGGGATT
B15: ACGCAAG (DNA:RNA)
RNA: B1 RNA with C27G, A28C, G30A
DNA 1: CAATCTGAATTCCGGTCTCCC
DNA 2: TGGTGGCTACGACGGGATT
B16: GCGAUCG (DNA:RNA)
RNA: B1 RNA with A25G, C27G, A29U, G30C
DNA 1: CAATCTGAATTCCGGTCTCCC
DNA 2: TGGTGGCTACGACGGGATT
B17: AGGCUGU (DNA:RNA)
RNA: B1 RNA with C26G, C27G, A28C, A29U, G31U
DNA 1: CAATCTGAATTCCGGTCTCCC
DNA 2: TGGTGGCTACGACGGGATT
B18: GUAGAGC (DNA:RNA)
RNA: B1 RNA with A25G, C26U, C27A, A28G, G31C
DNA 1: CAATCTGAATTCCGGTCTCCC
DNA 2: TGGTGGCTACGACGGGATT
B19: CUUCGGC (DNA:RNA)
RNA: B1 RNA with A25C, C26U, C27U, A28C, A29G, G31C
DNA 1: CAATCTGAATTCCGGTCTCCC
DNA 2: TGGTGGCTACGACGGGATT
B20: CGCAAGA (DNA:RNA)
RNA: B1 RNA with A25C, C26G, G31A
DNA 1: CAATCTGAATTCCGGTCTCCC
DNA 2: TGGTGGCTACGACGGGATT
B21: UUUUAGU (DNA:RNA)
RNA: B1 RNA with A25U, C26U, C27U, A28U, G31U
DNA 1: CAATCTGAATTCCGGTCTCCC
DNA 2: TGGTGGCTACGACGGGATT
B22: ACGGACU (DNA:RNA)
RNA: B1 RNA with C27G, A28G, G30C, G31U
DNA 1: CAATCTGAATTCCGGTCTCCC
DNA 2: TGGTGGCTACGACGGGATT
B23: GCCCAAG (DNA:RNA)
RNA: B1 RNA with A25G, A28C, G30A
DNA 1: CAATCTGAATTCCGGTCTCCC
DNA 2: TGGTGGCTACGACGGGATT
B24: CGAUCCU (DNA:RNA)
RNA: GGGAGACCGGAAUUCAGAUUGUCCCGAUCCUUUAAAUCCCGUCGUAGCCACCA
DNA 1: CAATCTGAATTCCGGTCTCCC
DNA 2: TGGTGGCTACGACGGGATT
B25: CAUUGCU (DNA:RNA)
RNA: B24 RNA with G26A, A27U, C29G
DNA 1: CAATCTGAATTCCGGTCTCCC
DNA 2: TGGTGGCTACGACGGGATT
B26: CUUUAUU (DNA:RNA)
RNA: B24 RNA with G26U, A27U, C29A, C30U
DNA 1: CAATCTGAATTCCGGTCTCCC
DNA 2: TGGTGGCTACGACGGGATT
B27: UUCACAG (DNA:RNA)
RNA: B1 RNA with A25U, C26U, A29C, G30A
DNA 1: CAATCTGAATTCCGGTCTCCC
DNA 2: TGGTGGCTACGACGGGATT
B28: UCAGAUU (DNA:RNA)
RNA: B1 RNA with A25U, C27A, A28G, G30U, G31U
DNA 1: CAATCTGAATTCCGGTCTCCC
DNA 2: TGGTGGCTACGACGGGATT
B29: ACUUCCC (DNA:RNA)
RNA: B24 RNA with C25A, G26C, A27U, U31C
DNA 1: CAATCTGAATTCCGGTCTCCC
DNA 2: TGGTGGCTACGACGGGATT
B30: ACGACGG (DNA:RNA)
RNA: B1 RNA with C27G, A29C
DNA 1: CAATCTGAATTCCGGTCTCCC
DNA 2: TGGTGGCTACGACGGGATT
B31: GGCUUCG (DNA:RNA)
RNA: B24 RNA with C25G, A27C, C29U, U31G
DNA 1: CAATCTGAATTCCGGTCTCCC
DNA 2: TGGTGGCTACGACGGGATT

The binders below were run against T1, RBFOX1 RRM RbFoxmut (Fox-RRM*) (assay: EMSA; HiTS-Eq, 1 nM pool, 10 min; buffer printed only for the single-RNA assays: 10 mM Tris pH 7.5, 150 mM NaCl, 3.4 mM EDTA, 0.001% NP-40, 30 C). Settings: tags: His6 N-terminal (pET28a); label: 5' 32P.
Summary of the method: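 Relative association constants, normalised to the cognate motif, were derived by comparing read counts of each RNA species with those of the control reaction. The RNA sequenced was the free fraction, separated by 8% native PAGE after a 10 min equilibration in 50 µL of 1 nM 5′-radiolabelled RNA (7 randomized nucleotides) with increasing concentrations of purified wild-type or mutant RbFox RRM.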

In order of falling binding signal:
1. B2  0.263 KA relative to UGCAUGU
2. B31  0.171 KA relative to UGCAUGU
3. B12  0.142 KA relative to UGCAUGU
4. B8  0.134 KA relative to UGCAUGU
5. B16  0.13 KA relative to UGCAUGU
6. B18  0.126 KA relative to UGCAUGU
7. B25  0.126 KA relative to UGCAUGU
8. B17  0.122 KA relative to UGCAUGU
9. B26  0.117 KA relative to UGCAUGU
10. B13  0.114 KA relative to UGCAUGU
11. B15  0.113 KA relative to UGCAUGU
12. B21  0.112 KA relative to UGCAUGU
13. B23  0.104 KA relative to UGCAUGU
14. B5  0.0983 KA relative to UGCAUGU
15. B30  0.095 KA relative to UGCAUGU
16. B9  0.0935 KA relative to UGCAUGU
17. B11  0.0934 KA relative to UGCAUGU
18. B10  0.0903 KA relative to UGCAUGU
19. B4  0.0898 KA relative to UGCAUGU
20. B20  0.0865 KA relative to UGCAUGU
21. B6  0.0844 KA relative to UGCAUGU
22. B28  0.0844 KA relative to UGCAUGU
23. B1  0.0823 KA relative to UGCAUGU
24. B3  0.0768 KA relative to UGCAUGU
25. B7  0.0762 KA relative to UGCAUGU
26. B27  0.0761 KA relative to UGCAUGU
27. B19  0.0704 KA relative to UGCAUGU
28. B22  0.062 KA relative to UGCAUGU
29. B29  0.062 KA relative to UGCAUGU
30. B14  0.0534 KA relative to UGCAUGU
31. B24  0.0439 KA relative to UGCAUGU
